Measured values taken from patent publication US9821054B2 (priority 2011, dated 2017).

System: CD4+Foxp3+ Tregs
Experiment: CD4+Foxp3+ Treg quantification during booster immunization
Conditions: MS-275 during booster immunization

Structure (SMILES): Nc1ccccc1NC(=O)c1ccc(CNC(=O)OCc2cccnc2)cc1 [MS-275, entinostat]
- increase in the DCT-specific CD8+ to Treg cell ratio: > 3 fold
